± gives the uncertainty stated by the source. Whole data set: some 9,900 compounds, median “viability index relative to DMSO control” near 1, cut for the lowest 2% near 0.85. The list shows a part of the results.

The source of these data is the supplement of paper PMC4723716.

This assay relates to Plasmodium falciparum NF54 stage V gametocytes. Nature of the assay: viability index relative to DMSO control (fraction); higher = less gametocyte killing. To be noted: 2.5 µM, library set: Broad Institute DOS, incubation time: 72 h. The essentials:
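Gametocytes (P. falciparum NF54, stage V) were treated with compound at 2.5 µM for 72 hr at 37°C in low oxygen, in serum-free medium at 0.75% gametocytemia and 1.25% hematocrit. Counts of 20–70 µm2 red particles, taken from one field per well after MitoTracker Red CMXRos with saponin, were divided by the plate mean of solvent-only wells. This ratio is the viability index.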
`CN1C(=O)c2cc(NS(=O)(=O)c3ccccc3Cl)ccc2OC[C@H]2O[C@@H](CC(=O)Nc3cc(F)ccc3F)CC[C@@H]21` yielded a viability index of 1.02 ± 0.026. Under `COc1cccc(NC(=O)Nc2ccc3c(c2)C(=O)N(C)C[C@H](OC)[C@@H](C)CN[C@H](C)CO3)c1` stands 1.02 ± 0.047; under `C[C@@H]1CN([C@@H](C)CO)C(=O)c2c(c3ccccc3n2C)-c2ccccc2CO[C@H]1CN(C)C(=O)[C@@H](Cc1ccccc1)N(C)C`, 1.06 ± 0.042. In the case of `CN1C(=O)c2cc(NC(=O)Nc3ccccc3Cl)ccc2OC[C@H]2O[C@@H](CC(=O)NCCCN3CCOCC3)CC[C@H]21` it was 1.19 ± 0.15; in that of `O=C(Nc1ccccc1F)N1CCCCN2[C@H](CO)[C@H](c3ccc(/C=C/c4ccccc4)cc3)[C@H]2C1`, 0.492 ± 0.14.

For the compound `Cc1noc(C)c1NC(=O)N(C)C[C@H]1OCc2ccccc2-c2c(n(C)c3ccccc23)C(=O)N([C@H](C)CO)C[C@H]1C`, the viability index was 1.03 ± 0.0078. Under `CC(C)NC(=O)N1[C@H](CO)[C@H](c2ccccc2)C12CN(C(=O)Cc1cccnc1)C2` stands 1.06 ± 0.043. In the case of `CC(C)NC(=O)NCC[C@@H]1CC[C@@H](NS(=O)(=O)c2ccc(Oc3ccccc3)cc2)[C@@H](CO)O1` it was 1.16 ± 0.092; in that of `COC(=O)C[C@H]1C[C@@H]2c3cc(NC(=O)c4ccc5c(c4)OCO5)ccc3O[C@@H]2[C@H](CO)O1`, 1.01 ± 0.065; in that of `C[C@H](CO)N1C[C@H](C)[C@@H](CN(C)C(=O)Nc2cccc(C(F)(F)F)c2)OCc2cn(nn2)CCCC1=O`, 0.997 ± 0.027. For the compound `CNC[C@@H]1Oc2ccc(NS(=O)(=O)c3ccc(OC)cc3)cc2C(=O)N([C@@H](C)CO)C[C@@H]1C`, the viability index amounted to 1.05 ± 0.016. `COCC(=O)N1[C@@H]2Cn3c(ccc(/C=C/c4ccccc4)c3=O)[C@H]1[C@@H](C(=O)N1CCOCC1)[C@@H]2CO` had a viability index of 1.11 ± 0.028.

As for `C[C@@H]1CN([C@@H](C)CO)C(=O)c2c(c3ccccc3n2C)-c2ccccc2CO[C@@H]1CN(C)S(=O)(=O)c1ccccc1C#N`, the viability index was determined as 1.07 ± 0.09. Under `C[C@H](CO)N1C[C@H](C)[C@@H](CN(C)S(=O)(=O)c2cn(C)cn2)OCc2ccccc2-c2ccccc2C1=O` stands 1.05 ± 0.067; under `COCC(=O)N1[C@H](CO)[C@@H](c2ccc(-c3ccccc3OC)cc2)C12CN(C(C)=O)C2`, 1.09 ± 0.044; under `O=C(c1ccncc1)N1C[C@H]2[C@@H](c3ccccc31)[C@H](CO)N2Cc1ccccc1F`, 0.999 ± 0.069. In the case of `COc1ccccc1-c1ccc2n(c1=O)C[C@H]1[C@H](CO)[C@@H](C(=O)NCc3ccccc3Cl)N[C@@H]21` it was 1 ± 0.041; in that of `CCC(=O)N1CC(=O)N2[C@H](CO)[C@H](c3ccc(-c4ccc(C#N)cc4)cc3)[C@H]2C1`, 0.95 ± 0.037; in that of `C[C@H](CO)N1C[C@H](C)[C@@H](CN(C)C(=O)Nc2cccc3ccccc23)OCc2cn(nn2)CCCC1=O`, 1.026 ± 0.01.

`CN(C)C(=O)c1ccc(-c2ccc3c(c2)[C@@H]2[C@@H](CCN2Cc2ccncc2)[C@@H](CO)N3)cc1` had a viability index of 1.11 ± 0.019. Under `N#C[C@H]1[C@@H](c2ccccc2-c2cccc(F)c2)[C@H](CO)N1C(=O)CN1CCOCC1` stands 1.14 ± 0.08; under `COc1ccccc1S(=O)(=O)N(C)C[C@@H]1OCc2cn(nn2)CCCC(=O)N([C@H](C)CO)C[C@H]1C`, 1.032 ± 0.0056. In the case of `O=C(C[C@@H]1CC[C@H]2[C@@H](COC[C@@H](O)CN2C(=O)c2cnccn2)O1)N1CCN(c2ccccc2)CC1` it was 1.06 ± 0.018; in that of `Cc1ccc(S(=O)(=O)N(C)C[C@@H]2OCCCC[C@@H](C)Oc3ccc(NC(=O)c4ccncc4)cc3C(=O)N([C@@H](C)CO)C[C@H]2C)cc1`, 1.03 ± 0.13. Under `COc1cccc(NC(=O)C[C@@H]2CC[C@@H]3[C@@H](COc4ccc(NS(=O)(=O)c5cccc(F)c5)cc4C(=O)N3C)O2)c1` stands 1.12 ± 0.11; under `COc1cccc(-c2ccc([C@@H]3[C@H]4CNC[C@@H]3N4C(=O)NC3CCCCC3)cc2)c1`, 1.06 ± 0.03. `COc1ccc(CN2[C@@H]3CN(C(=O)NC(C)C)c4ccccc4[C@@H]3[C@@H]2CO)cc1`: the viability index is 1.1 ± 0.0094. Under `Cc1noc(C)c1S(=O)(=O)N(C)C[C@H]1OCCCC[C@H](C)Oc2ccc(NC(=O)CCC(F)(F)F)cc2C(=O)N([C@H](C)CO)C[C@H]1C` stands 1.012 ± 0.01; under `CCCNC(=O)N(C)C[C@H]1Oc2cc(C#C[C@@H](C)O)ccc2S(=O)(=O)N([C@H](C)CO)C[C@@H]1C`, 1.04 ± 0.015; under `C[C@H]1CN([C@@H](C)CO)C(=O)c2cccc(N(C)C)c2O[C@@H]1CN(C)C(=O)Nc1ccc(F)cc1`, 0.943 ± 0.017. Under `CC(C)(C)S(=O)N1Cc2cc(C(=O)NCCCN3CCOCC3)nc(-c3cccc(-c4cccc(F)c4)c3)c2[C@H]1CCO` (some centres undefined) stands 1.01 ± 0.057. In the case of `O=C1CN(S(=O)(=O)Cc2ccccc2)C[C@H]2[C@H](c3ccc(C#Cc4ccccc4)cc3)[C@H](CO)N12` it was 1.051 ± 0.006; in that of `C[C@@H]1CN([C@@H](C)CO)C(=O)c2ccccc2-c2ccccc2CO[C@H]1CN(C)S(=O)(=O)c1cn(C)cn1`, 0.99 ± 0.16; in that of `O=C(NC1CCCC1)[C@@H]1[C@@H](CO)[C@@H]2Cn3c(cccc3=O)[C@H]1N2C(=O)CC1CC1`, 1.117 ± 0.0051. Compound `CNC[C@@H]1Oc2c(NS(=O)(=O)c3ccc(Cl)cc3)cccc2C(=O)N([C@@H](C)CO)C[C@H]1C` registered a viability index of 1.0352 ± 0.00018. Compound `O=C(NC1CCCC1)N1CCCCN2[C@H](CO)[C@@H](c3ccc(-c4cccnc4)cc3)[C@@H]2C1` returned a viability index of 1.01 ± 0.063. In the case of `C[C@@H]1CN([C@@H](C)CO)S(=O)(=O)c2ccc(Br)cc2O[C@@H]1CN(C)Cc1ccc2c(c1)OCO2` it was 0.857 ± 0.15. In the case of `O=C(C[C@@H]1C[C@H]2c3cc(NC(=O)C4CCOCC4)ccc3O[C@H]2[C@H](CO)O1)NCc1cccnc1` it was 1.06 ± 0.0075; in that of `N#Cc1ccc(-c2ccc([C@@H]3[C@@H]4CN(Cc5cocn5)C[C@H]3N4)cc2)cc1`, 0.993 ± 0.0099; in that of `N#C[C@H]1N[C@H](CO)[C@H]1c1ccc(C#Cc2ccccc2F)cc1`, 1.04 ± 0.047. `C[C@H]1CN([C@@H](C)CO)C(=O)c2cc(NS(C)(=O)=O)ccc2O[C@H]1CN(C)C` registered a viability index of 0.981 ± 0.07. Regarding `COc1ccc(C[C@@H]2CCn3nncc3COC[C@@H](c3ccccc3)NC2=O)cc1`, the viability index stood at 1.1 ± 0.049. Under `CC(C)C(=O)Nc1ccc2c(c1)C(=O)N(C)[C@@H]1CC[C@H](CC(=O)NCCc3ccccc3)O[C@H]1CO2` stands 1.07 ± 0.088. `CO[C@H]1CN(C)C(=O)c2cc(NC(=O)Cc3ccccc3)ccc2OC[C@@H](C)N(C(=O)c2ccccc2F)C[C@H]1C`: the viability index is 1.06 ± 0.066.
